In patent US20230213525A1, “DETECTING MICROBIAL INFECTION IN WOUNDS” (QUALIZYME DIAGNOSTICS GMBH & CO KG, priority 2016, published 2023) one finds Test response data, which are given here for one substance.

The experiment concerns Cathepsin. The following applies: Whatman filter paper, 210 minutes. How it is done: The final concentration of N-methoxysuccinyl-ala-ala-pro-phe-p- nitroanilide can be between 0.5 to 10 mM, and is preferentially 5.00 mM. 10 µL of this solution were pipetted onto Whatman filter paper.

Like-named read-outs stand apart in the source and are kept apart here.

On to “N-methoxysuccinyl-ala-ala-pro-phe-p-nitroanilide”, for which the Test response result runs as follows: (infected sputum samples A, B) “yellow”; (non-infected sputum samples C, D) “No colour change”.
